PubChem BioAssay AID488969 (Vanderbilt High Throughput Screening Facility, 2010)
Whole data set: some 110,000 compounds, median “z-score” near -0.1, cut for the highest 2% near 2. The list shows a part of the results. Activity calls are given as the source filed them.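 Rule for the calls: active = z-score in the third read window above 3 or below -3; inactive = the rest.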

Biological target: Metabotropic glutamate receptor 8 (Rattus norvegicus) (UniProt P70579)
Experiment: rat mGluR8 modulators via GIRK flux, primary screen, cell-based, thallium flux, HTS (AID 488969)
Settings: HEK293 rat mGluR8, GIRK (G protein-gated inwardly rectifying potassium channel) thallium flux, FluoZin2; at 10 µM; stronger effect = higher value; submaximal glutamate (EC20) added with thallium

Chain of UniProt P70579 (P70579 whole entry, looked up): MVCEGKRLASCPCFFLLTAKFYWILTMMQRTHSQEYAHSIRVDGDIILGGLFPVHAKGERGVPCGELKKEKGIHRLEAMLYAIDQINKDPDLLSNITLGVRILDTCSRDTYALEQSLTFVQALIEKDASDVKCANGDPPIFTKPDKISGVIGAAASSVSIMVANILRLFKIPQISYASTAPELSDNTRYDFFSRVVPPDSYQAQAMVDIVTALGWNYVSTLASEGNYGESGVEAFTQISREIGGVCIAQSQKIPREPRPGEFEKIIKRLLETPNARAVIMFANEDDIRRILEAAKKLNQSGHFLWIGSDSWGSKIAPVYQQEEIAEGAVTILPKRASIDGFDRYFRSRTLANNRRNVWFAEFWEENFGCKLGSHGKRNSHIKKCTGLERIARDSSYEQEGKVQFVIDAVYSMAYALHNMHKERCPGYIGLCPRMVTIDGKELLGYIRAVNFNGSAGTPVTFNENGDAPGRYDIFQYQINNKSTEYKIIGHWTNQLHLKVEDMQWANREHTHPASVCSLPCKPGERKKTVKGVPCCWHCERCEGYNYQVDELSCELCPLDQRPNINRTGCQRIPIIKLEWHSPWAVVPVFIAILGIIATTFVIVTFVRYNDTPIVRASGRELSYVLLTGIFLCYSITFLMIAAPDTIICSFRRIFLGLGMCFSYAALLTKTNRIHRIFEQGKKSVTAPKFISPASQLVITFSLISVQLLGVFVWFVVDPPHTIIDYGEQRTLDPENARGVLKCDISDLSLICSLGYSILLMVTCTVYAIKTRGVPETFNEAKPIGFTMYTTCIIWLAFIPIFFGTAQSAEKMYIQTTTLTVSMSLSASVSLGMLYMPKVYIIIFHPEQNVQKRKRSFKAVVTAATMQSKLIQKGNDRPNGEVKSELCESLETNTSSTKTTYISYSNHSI

First: O=C(NCC1CCCO1)c1ccc(S(=O)(=O)N2CCC(c3nc4ccc(Cl)cc4[nH]3)CC2)cc1 (stereo not given)
Second: Cc1cc(Cl)c(S(=O)(=O)NCC2CCCO2)cc1OCC(=O)NC1CCCCC1 (stereo not given)
The z-score of the first is higher: 0.143 for the first, -0.127 for the second.

Going from `CCC(CC)NC(=O)CSc1nnc(-c2ccc(OC)cc2)n1C(C)C` to `COc1ccc(-n2c(SCC(N)=O)nnc2-c2ccc(NS(=O)(=O)c3ccc(C)cc3)cc2)cc1`, the z-score falls from 1.45 to 0.0143.

Going from `COc1ccc(Br)cc1C1CC(=O)N2CN(C)CSC2=C1C#N` (stereo not given) to `CCOC(=O)C1CCN(C(=O)c2cc3c(-c4ccc(OC)c(OC)c4)nn(C)c3s2)CC1`, the z-score falls from -0.148 to -1.22.

Compared with `O=c1[nH]c(N/N=C/c2ccc(O)cc2)nc2ccccc12`, `CC(=O)n1cc(/C=C2/N=C(c3ccccc3)OC2=O)c2ccccc21` is higher in z-score: -0.00334 for the first, 0.0997 for the second.

Going from `C=CCNC(=O)C1CC(=O)N(c2ccc(OCC(=O)Nc3ccc(C)cc3)cc2)C1` (stereo not given) to `Cc1ccc(OCC(=O)Nc2sc3c(c2C#N)CCC3)cc1`, the z-score falls from 0.104 to 0.0233.

Going from `O=C(O)/C=C/c1ccc2ccccc2n1` to `CN(CC(=O)NCc1ccncc1)S(=O)(=O)c1ccccc1`, the z-score rises from -0.432 to -0.404.

First: CCOc1ccc(-c2cc(N)n(S(=O)(=O)c3ccc(OC)c(OC)c3)n2)cc1
Second: CCc1cc2c(=O)c(-c3cnn(-c4ccccc4)c3)c(C)oc2cc1OCC(=O)Nc1ccc(F)c(F)c1
The z-score of the first is lower: -0.0264 for the first, 0.0216 for the second.

Compared with `CCN(CC)c1ccc(NC(=O)c2cncc(Br)c2)cc1`, `Cc1cc(C(=O)Nc2ccc3c(c2)OCO3)cs1` is higher in z-score: -1.28 for the first, 0.0686 for the second.

Compared with `O=C(COC(=O)CSc1cc(Cl)ccc1Cl)NCc1ccc2c(c1)OCO2`, `O=C(COc1cccc2cccnc12)N/N=C1\SCC(=O)N1Cc1ccco1` is higher in z-score: -0.326 for the first, 1.37 for the second.

Compared with `O=C1c2[nH]nc(-c3ccccc3O)c2C(c2cccc(Cl)c2)N1Cc1ccco1` (stereo not given), `O=C1Nc2ccc(F)cc2C12Nc1ccccc1-c1nnc(SCc3ccccc3F)nc1O2` (stereo not given) is lower in z-score: -0.211 for the first, -0.338 for the second.

First: CCCCCOC(=O)c1ccc(N2C(=O)C3C4C=CC(C4)C3C2=O)cc1 (stereo not given)
Second: Cc1n[nH]c(C)c1Cc1ccc(C(=O)O)cc1
The z-score of the first is lower: 0.103 for the first, 0.431 for the second.

Going from `CC(C)OCCCNC(=O)c1c(N)n(/N=C/c2cccs2)c2nc3ccccc3nc12` to `CC(C)CCNC1=CC(=O)CC(c2ccccc2)C1` (stereo not given), the z-score rises from 0.145 to 2.1.

Compared with `CCCOP(=O)(OCCC)C1(Nc2ccc(C)cc2)CCCCC1`, `COc1ccc(CC(=O)NC2CC(C)(C)NC(C)(C)C2)cc1` is lower in z-score: 0.139 for the first, -0.12 for the second.

Compared with `Nc1ncnc(Nc2cc(Cl)cc(Cl)c2)c1[N+](=O)[O-]`, `CSc1ccccc1C(=O)N1CCOCC1` is lower in z-score: -0.0016 for the first, -0.0127 for the second.

`CCC(=O)Nc1sc2c(c1C#N)CCCCC2` showed a z-score of 0.16.

For `O=c1c2c(nc3c(-c4ccc(Cl)cc4)c[nH]n13)CCCC2`, the z-score was active: 12.
